# According to paper PMC12040169 (PLOS Biology, 2025):
# The other results are listed elsewhere or left out.
# System: T1, C. trachomatis L2/434/Bu expressing GFP (CTL2-GFP)
# T1 construct: L2/434/Bu GFP intracellular growth in HeLa cells
# Set-up: species or system HeLa; C. trachomatis total inclusion area by high-content imaging, normalised to DMSO
# Details: total inclusion area; 28.5 h, 10 µM; inhibitor
# Outline: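 Imaging read-out: GFP inclusions and Hoechst nuclei captured by high-content imaging after fixation. Inclusion area/number = chlamydial growth; nuclei count = host cell viability. MIC calculated per earlier method.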
row,Compound,% of control remaining
1,Cc1cc(C(=O)N(CCC#N)Cc2cccs2)no1 [CBK057316],90.24
2,CC(=O)Nc1ccc(C(=O)CSc2nc(-c3ccccc3)c(-c3ccccc3)o2)cc1 [CBK266168],103.455
3,O=c1[nH]c2ncc(-c3ccoc3)nc2n1C1CCOCC1 [CBK064973],106.736
4,CCN(CC)Cc1cc(C(C)(C)C)oc1C(=O)O [CBK266013C],117.023
5,CCCn1cc(C(=O)NCC2CCN(c3ccccc3F)C2)c(C)n1 (centres unmarked) [CBK304634],35.1272
6,CS(=O)(=O)Nc1cc2ccccc2c(-c2ccc(OCc3ccccc3)c(F)c2)n1 [CBK073785],83.3699
7,CN(C)c1nc(NCc2ccccc2)nc(SCC(=O)Nc2ccc(Cl)c(Cl)c2)n1 [CBK267289],83.5886
8,COc1ccc(CCNC(=O)N2CCCC(C(=O)O)C2)cc1 (centres unmarked) [CBK161367],21.9264
9,O=c1cc2ncc(-c3ccncc3)cn2[nH]1 [CBK011300],61.0143
10,Cc1cccc(NC(=O)c2cnc3scc(C)n3c2=O)c1 [CBK287453],100.36
11,COc1nccnc1OC1CCN(CCOc2ccccc2)CC1 [CBK084260],69.4148
12,COc1ccccc1CN(CCCn1ccnc1)Cc1cccn1C [CBK283160],94.6657
13,Cc1ccccc1NC(=O)N1CCC2(CC1)NCCc1c2[nH]c2ccc(O)cc12 [CBK046904],108.819
14,NC(=O)c1c(NC(=O)/C=C/c2c(F)cccc2Cl)sc2c1CCCCCC2 [CBK262631],111.233
15,Cc1ccc(S(=O)(=O)NC[C@H]2CC[C@H](C(=O)O)CC2)cc1 [CBK286706],86.012
16,CC(=O)NCCn1cc2c(n1)[C@H]1CN(C(=O)C(C)(C)C)C[C@H]1CC2 [CBK282168],128.925
17,COc1ccc(CN2CCNC(=O)C2CC(=O)O)cc1OC (centres unmarked) [CBK269991],73.6699
18,CCN(CC)C(=O)C1CCCN(C(=O)NCCOC)C1 (centres unmarked) [CBK156129],77.1671
19,O=c1c2ccccc2nc2n1CCN(Cc1ccc(F)cc1)CC2 [CBK284814],95.606
20,Cc1cccc(C(=O)Oc2ccc(-n3ccnc3)cc2)c1 [CBK090137],92.7687
21,CC(=O)N1C[C@H]2CCCN(S(=O)(=O)c3ccc(Cl)s3)[C@H]2C1 [CBK285293],98.4002
22,Cc1nc(S(=O)(=O)CCn2cccn2)n(C2CCCC2)c1C [CBK305138],106.401
23,Cc1ccc2c(c1)N(CCO)/C(=C/c1sc3ccccc3[n+]1CCCS(=O)(=O)[O-])S2 [CBK293965],64.3351
24,COc1ccc(-c2nnc3ccc(SCC(=O)N4CCCC4)nn23)cc1OC [CBK287527],95.5868
25,O=[N+]([O-])c1cc(S(=O)(=O)Nc2nnc(C(F)(F)F)s2)ccc1Cl [CBK062021],93.6424
26,CCCNC(=O)Cn1nc(C)n2c(cc3sccc32)c1=O [CBK284020],104.63
27,CCN1CCN(c2c(Cl)cccc2NC(=O)CSc2ccc(Cl)cc2)CC1 [CBK267606],79.2413

row,Compound,% of control remaining
1,COC(=O)c1cccc(C(=O)Nc2ncc(-c3ccccc3)s2)c1 [CBK298294],91.9562
2,Cc1[nH]c2cc(C(=O)O)ccc2c1CC(=O)O [CBK269955],93.6155
3,O=c1c(-c2ccccc2)c(C(F)(F)F)oc2c(CN3CCN(Cc4ccccc4)CC3)c(O)ccc12 [CBK265808],81.2068
4,Cc1cc2ccnc(Cl)c2n1CC1(O)CC2CCC(C1)N2 (centres unmarked) [CBK284980],110.867
5,O=C(NS(=O)(=O)c1cccc(-c2nnco2)c1)C1C2C3CCC(C3)C12 (centres unmarked) [CBK306488],52.0709
6,CNCC(=O)N1CCC2(CCCC[C@H]3CN(C(C)=O)CC[C@H]3NC(=O)CNC2=O)CC1 [CBK292181],87.4463
7,NC(=O)COc1ccc(CNc2ccc(Oc3ccccc3)cc2)cc1Cl [CBK269584],83.2998
8,CC1CN(S(=O)(=O)c2ccc(NC(=O)c3nc(SCc4ccccc4)ncc3Cl)cc2)CC(C)O1 (centres unmarked) [CBK268930],59.0233
9,CCC(=O)Nc1nc(-c2ccc(C(=O)OC)cc2)nc2c1c(=O)oc1ccccc12 [CBK268449],94.6254
10,COc1ccc(N2CCN(c3c(C)c(C)nc4cc(-c5nccn5C)nn34)CC2)cc1 [CBK286178],94.7825
11,COc1ccc([C@H]2CN(C(=O)c3ccccc3)[C@@H]3CCN(Cc4cccc(F)c4)C[C@H]23)cc1 [CBK285584],86.995
12,Cn1ccnc1CN1CCCN(C(=O)c2cccc(C#N)c2)CC1 [CBK303998],45.1029
13,O=C(NCc1cccc(C(F)(F)F)c1)c1cnc(-c2ccccc2)c(-c2ccco2)c1 [CBK036667],114.549
14,O=C(O)COc1ccccc1/C=N\N1CCN(c2ccccn2)CC1 [CBK262916],103.582
15,O=C(c1cccc(F)c1)N1CCC(O)(c2cccnc2F)CC1 [CBK284357],75.3805
16,COc1ccc2c(c1)CCN=C2C[C@H]1CN(C(=O)C(C)(C)C)CC[C@H]1CC(=O)O [CBK289155],108.856
17,CCN1CCN(C(=O)C2CC=CCC2C(=O)O)CC1 (centres unmarked) [CBK270295],72.3876
18,C(=N\N1CCOCC1)/c1cccs1 [CBK027942],103.167
19,CCn1c2ccccc2c2cc(CN3CCN(c4ccccc4OC)CC3)ccc21 [CBK261579],91.7133
20,Cc1c(Cl)cccc1NC(=O)CSCc1cc(O)[nH]n1 [CBK268199],106.992
21,COc1ccc(C(=O)N2CCC3(CCCN(C(=O)Cn4cc(C)c(=O)[nH]c4=O)C3)C2)cc1OC (centres unmarked) [CBK137085],84.8207
22,O=C(CN(c1ccc(Cl)cc1)S(=O)(=O)c1ccccc1)Nc1ccc2ccccc2c1 [CBK263776],75.1217
23,CN1CCN(C(=O)C2CCN(S(=O)(=O)c3ccc4ccccc4c3)CC2)CC1 [CBK269504],40.9707
24,Cc1ncsc1CCOc1cc(N2CCCC2)ncn1 [CBK115895],95.9625
25,O=C(C1CCCCC1)N1CCC(c2nnc3n2CCCCC3)CC1 [CBK284613],119.085
26,N#Cc1c(SCC(=O)N2CCc3ccccc3C2)nsc1SCC(=O)N1CCc2ccccc2C1 [CBK267453],86.5031
27,O=C(CSc1ncnc2ccccc12)Nc1nc2ccccc2s1 [CBK287510],88.2016

row,Compound,% of control remaining
1,CC1CCN(S(=O)(=O)c2ccc(NC(=O)c3ccc(Br)o3)cc2)CC1 [CBK264536],95.3931
2,CCNc1nc(-c2ccc3[nH]ccc3c2)cn2ccnc12 [CBK038002],109.809
3,O=C(O)C1CCCN(C(=O)COc2cc3oc(=O)cc(-c4ccccc4)c3cc2Cl)C1 (centres unmarked) [CBK286753],83.6401
4,Fc1ccc2[nH]c3c(c2c1)CCN1C(c2cccnc2)N2CCC31CC2 (centres unmarked) [CBK284436],54.8211
5,CCN(Cc1ccccc1)C(=O)Nc1ccc2[nH]ccc2c1 [CBK155229],65.2629
6,O=C(NCCN1CCOCC1)c1cc(Br)cnc1N1CCOCC1 [CBK076202],100.058
7,COCCNS(=O)(=O)c1ccc(C)cc1 [CBK002332],54.5389
8,COc1cc(CCN2CCC(c3nc(-c4ccccc4)c4ccccn34)CC2)cc(OC)c1OC [CBK035278],79.0658
9,CC(C)c1nc(CCN(C)C(=O)NCc2cnc3cnccn23)no1 [CBK307666],96.6
10,COc1ccc2[nH]cc(C(C(=O)O)N3CCCCC3)c2c1 (centres unmarked) [CBK286676],71.4394
11,CCCCOc1ccc(C(=O)OC(Cc2cccc3ccccc23)CN(CC)CC)cc1 (centres unmarked) [CBK011965C],30.6416
12,CC(C)Nc1nc2cc(Cl)c(Cl)cc2nc1OCCCN(C)C [CBK115282],95.5282
13,Cc1ccc(S(=O)(=O)N(CC(O)CN2CCCCC2)c2ccccc2)cc1 (centres unmarked) [CBK263570],42.8678
14,COCCCNC(=O)c1cnn2c(C)c(Cc3ccccc3)c(C)nc12 [CBK162216],66.545
15,COc1cc(CNC(=O)c2ccc(O)nc2)ccc1OCc1ccncc1 [CBK298297],83.3164
16,O=C(NCc1ccc(F)cc1)c1cc(Br)cnc1NCc1cccnc1 [CBK076405],78.0944
17,O=C(NC1(c2ccccc2)CCCC1)c1ccc(=O)n(CC(=O)N2CCCCC2)c1 [CBK285631],117.55
18,C=CCn1c(-c2sc(NC(=O)CCc3ccco3)nc2C)n[nH]c1=S [CBK295312],138.837
19,CCCc1ccc(S(=O)(=O)Nc2cccc(C(=O)OCC)c2)cc1 [CBK034332],92.7872
20,Cn1c(=O)n(CC(=O)NCc2cccs2)c2cccnc21 [CBK283907],97.3741
21,c1coc(-c2cn3ccnc3c(NCCc3ccncc3)n2)c1 [CBK037333],136.916
22,O=C(CCCCCN1C(=O)c2ccccc2C1=O)NO [CBK288514],118.091
23,N#Cc1ccc(N2CCCC(N3CCNC3=O)C2)c(C(F)(F)F)c1 (centres unmarked) [CBK305162],82.8104
24,Cc1ccc(-c2nccnc2OCCOc2ccccc2)c(C)c1 [CBK106991],104.835
25,Cc1ccc(C)c(NC(=O)CN(Cc2ccc(Cl)c(Cl)c2)S(=O)(=O)c2ccccc2)c1 [CBK264191],77.723
26,O=C(O)CCC(=O)N1CCCC2(CCN(C(=O)Cc3c[nH]c4ccccc34)C2)C1 (centres unmarked) [CBK131572],89.409
